B1: LINE1-mini (parent)
chain: GGCAGAGCUCAACACAGCGUGGCAAAGUGGCUGUGGCUAGACUGCC

Read counts are not given, so values of variants with three or more changes are uncertain.

Variants of B1 are the subject of the data set. Kind of data set: self-cleavage, relative activity (ratio to wild type); higher = more cleavage; in vitro, sequencing; the parent is a self-cleaving ribozyme.
As for GGCAGAGCGCAACACAGUGUGGCAAAGUGUCUGUCGCUAGACUGCC [U9G C18U G30U G35C], the self-cleavage amounted to 0.09.

GGCAGAGCGCAACACAGAGUGGCAAAGUGGCUAUGGCUAGACUGCC [U9G C18A G33A]: the self-cleavage stood at 0.02.

As for GGCAGAGCGCAACACUGCGUGGCAAAUUGGCUGUGGCUAGAUUGCC [U9G A16U G27U C42U], the self-cleavage amounted to 0.02.

Take GGCAGAGCGCAACACAGCGUGAGAAAGUGGCUGUAGCUAUACUGCC [U9G G22A C23G G35A G40U]: the self-cleavage was determined as 0.01.

As for GGCAGAGCGCAACAAAGCGUGGCAAAGUGGCUGUGGCUAGACUAUC [U9G C15A G44A C45U], the self-cleavage was determined as 0.03.

Take GGCAGAGCGUAACACAGCGUGGCAAAAUGACUGUGGCUAGACUGCC [U9G C10U G27A G30A]: the self-cleavage is 0.08.

Regarding GGCAGAGCGUAACACAGCGUGGCAACGUGGCUGUGUCUAGACUGCC [U9G C10U A26C G36U], the self-cleavage stood at 0.01.

With GGCAGAGCGCAAGACAGCGUAUCAAAGUGGCUGUGGCUAGACUGCC [U9G C13G G21A G22U], the self-cleavage was 0.15.

Turning to GGCAGAGCGCAACACAGCGUAGCAAAGUGGCCGUGGCUAGAGUGCC [U9G G21A U32C C42G], the self-cleavage amounted to 0.

With GGCAGAGCGCUACACAGCGUUGCAAAGUGGCUGAGGUUAGACUGCC [U9G A11U G21U U34A C37U], the self-cleavage amounted to 0.01.

As to GGCAGAGCGCAACACAGCGUGCCAAAGUGACGGUGGGUAGACUGCC [U9G G22C G30A U32G C37G], the self-cleavage amounted to 0.02.

Take GGCAGAGCGCAAGGCAGCGUGGCAAAGUGGCUGUGGCUAGACUACC [U9G C13G A14G G44A]: the self-cleavage stood at 0.04.

For GGCAGAGCGCAACACAGCGUUGCAAAGUGCUUGUGGCUAGACUGCC [U9G G21U G30C C31U], the self-cleavage came out at 0.05.

As for GGCAGAGCGCAACACAGCGUGGCAAGGUGACUGUGGCUAGACUGCC [U9G A26G G30A], the self-cleavage was 0.18.

Take GGCAGAGCGCAACACAGCGUGGCAAAGUGGCUCUGGCUAGCCUGCU [U9G G33C A41C C46U]: the self-cleavage is 0.07.

For GGCAGAGCGCAAAACAGCGUGGUAAAGUGGCUGUGGCUAGACUGCC [U9G C13A C23U], the self-cleavage is 0.06.

For GGCAGAGCGCAACACAGCGUUGCAAAGAGGCUGUGGCUAGACUGCC [U9G G21U U28A], the self-cleavage is 0.05.

Turning to GGCAGAGCGCAACACAGCGUGGCACAGUGGCUGUGGCCAGACUGCC [U9G A25C U38C], the self-cleavage was 0.03.

Take GGCAGAGCGCAGCACAGCGUGGCUAAGUGGCUGUGGCUAUACUGCC [U9G A12G A24U G40U]: the self-cleavage worked out at 0.01.

Regarding GGCAGAGCGUAACACACCGUGGCAACGUGGCUCUGGCUAGACUGCC [U9G C10U G17C A26C G33C], the self-cleavage came to 0.02.

On to GGCAGAGCGCUACACAGCGUCGCAAAGUGGCUGUGGCUAGGCUGCC [U9G A11U G21C A41G], for which the self-cleavage turned out to be 0.

Regarding GGCAGAGCGCAGAACAGCGUGGGAAAGUGGCUGUGGCUAGACUGCC [U9G A12G C13A C23G], the self-cleavage is 0.01.

With GGCAGAGCGCAUCACAGCGUGGCAAAGUGGCUGAGGCUUGACUACC [U9G A12U U34A A39U G44A], the self-cleavage worked out at 0.03.

Consider GGCAGAGCGCAACAUAGCGUAGCAAAGUGGCUGUGGCUAGACUGCC [U9G C15U G21A], for which the self-cleavage was 0.01.

Turning to GGCAGAGCGCAACACAGCGUGGCAAAGUUGCUGUGGCUAGAGUGCC [U9G G29U C42G], the self-cleavage is 0.03.

Consider GGCAGAGCGCAACACAGCGUGGCAAAGUGGCUGUAGUUAGACAUCC [U9G G35A C37U U43A G44U], for which the self-cleavage came to 0.03.

Consider GGCAGAGCGCAACAAAGCGUGGCAAAGUGGCUGAGGCUACACUGCA [U9G C15A U34A G40C C46A], for which the self-cleavage was determined as 0.02.

Consider GGCAGAGCGCAACACCGCGUGGCAAAGUGGCUGUGGCUAGACUUCA [U9G A16C G44U C46A], for which the self-cleavage stood at 0.05.

Consider GGCAGAGCGCAACACAGUGUGGCAAUGUGGCUGUGGCUAGACUGCC [U9G C18U A26U], for which the self-cleavage amounted to 0.07.

On to GGCAGAGCGCAACACAGCGUCGCAAAGUGGCUGUGGCUAGACUGGU [U9G G21C C45G C46U], for which the self-cleavage stood at 0.23.

Turning to GGCAGAGCGCAACACAGCGAGGCAAAGUGGCUGUGGCUAGGCUGCC [U9G U20A A41G], the self-cleavage was found to be 0.

Regarding GGCAGAGCGCAACACAGCGUGCCAAAGUGUCUGUCGCUAGACUGCC [U9G G22C G30U G35C], the self-cleavage was found to be 0.02.

For the variant GGCAGAGCGCAACACAGCGUGGCAAAGUCGCUGUGGGUAGAAUGCC [U9G G29C C37G C42A], the self-cleavage was 0.01.

With GGCAGAGCGCAACACAGCGUGGCAAAGUGGCUGUUACUAGAAUGCC [U9G G35U G36A C42A], the self-cleavage was 0.16.

In the case of GGCAGAGCGCAACACAGCGUGGCUACGUGGUUGUGGCUAGACUGCC [U9G A24U A26C C31U], the self-cleavage stood at 0.01.

Turning to GGCAGAGCGCAACACAGGGUGGCUAAGUGGCUGUAACUAGAUUACC [U9G C18G A24U G35A G36A C42U G44A], the self-cleavage stood at 0.01.

Turning to GGCAGAGCGCAAAACAUCUUGGCAAAGUGGCUGUAGCUAGACUGCC [U9G C13A G17U G19U G35A], the self-cleavage came to 0.19.

Consider GGCAGAGCGAAACACAGCGUGGCAAAGUGUCUGUGGCUACAAUGCU [U9G C10A G30U G40C C42A C46U], for which the self-cleavage is 0.03.

As for GGCAGAGCGCAAAACAGCGUGGCAAAGUGGCUGUGGAUAGACUGCC [U9G C13A C37A], the self-cleavage was determined as 0.38.

In the case of GGCAGAGCGCAACACAGCGUGGCAAAGUGGCUAUGGCUAGACUGCU [U9G G33A C46U], the self-cleavage is 0.06.

Take GGCAGAGCGGAACACAGCUAGGCAAAGUGGGUGUGGCUAGACUGCU [U9G C10G G19U U20A C31G C46U]: the self-cleavage came out at 0.02.

As to GGCAGAGCGCAACACAGCAUGGCAAGGUGGCUGUGGCUAGACUGCC [U9G G19A A26G], the self-cleavage was 0.14.

As to GGCAGAGCGCACCACACCGUGGCAAAGUGUCUGCGGCUAGACAGCC [U9G A12C G17C G30U U34C U43A], the self-cleavage was determined as 0.

Consider GGCAGAGCGCAACACAGCGUGGCAAUGUGGCUGUGGCUAGUCUGCC [U9G A26U A41U], for which the self-cleavage is 0.07.

Turning to GGCAGAGCGCAACAAAGUGUGGCAAAGUUGCUGUGCCUAGACUGCC [U9G C15A C18U G29U G36C], the self-cleavage was 0.02.

Consider GGCAGAGCGCAUCACAGCGUGGCAAAGUGGCUGUAGCUAAACUGCC [U9G A12U G35A G40A], for which the self-cleavage stood at 0.03.

Consider GGCAGAGCGCAACACAGAGUGGCAUAGUGGCUGUGGCUAGACUGCC [U9G C18A A25U], for which the self-cleavage stood at 0.01.

In the case of GGCAGAGCGUAACACAGCGUGGCAAAGUGGCUGUGCCUAGACUGCC [U9G C10U G36C], the self-cleavage is 0.11.

As to GGCAGAGCGCAACACAACGUGGCAAAGUGGCUGUGGCUAAACUGCC [U9G G17A G40A], the self-cleavage turned out to be 0.17.

Turning to GGCAGAGCGCAACACAGCGUGUCAAAGUGGCUGUGGUUAGACUGCC [U9G G22U C37U], the self-cleavage is 0.04.

Turning to GGCAGAGCGCAACACAGCGUGGCAAAGUGGUUGUGGCUAGACUUCC [U9G C31U G44U], the self-cleavage was 0.01.

On to GGCAGAGCGCAACACAGCGUGGCAAAGUGGCUGUGGUGAGACUACC [U9G C37U U38G G44A], for which the self-cleavage is 0.

With GGCAGAGCGCAACACAGCGUGGCCAAGUGUCUGUGGCUAGACUGCC [U9G A24C G30U], the self-cleavage was found to be 0.04.

As for GGCAGAGCGCAACACAGCGUGGUAAAGUGGAUGUGGCUAGACUGCC [U9G C23U C31A], the self-cleavage was 0.05.

GGCAGAGCGCAACACAGCGUGGCAAAGUCUUUGUCGCUAGACUGCC [U9G G29C G30U C31U G35C]: the self-cleavage turned out to be 0.02.

For the variant GGCAGAGCGCAACACAGCGUGGCAAAGUGGCUGUGGCUCGAAUGCC [U9G A39C C42A], the self-cleavage is 0.03.
